Assay results from PubChem BioAssay AID652025 (National Center for Advancing Translational Sciences (NCATS), 2013).
The whole screen tested about 360,000 compounds, of which about 240 (0.067%) were called active. The shares of active, inactive and inconclusive entries below differ from those in the screen. Cut-off read from the data, not from the text of the source: active = activation above about 50%; inconclusive = mostly about 30% to 49%; inactive = weaker than that.

assay: qHTS of IL-2 Activators; conditions: IL-2 activation reporter assay, cell-based qHTS; hits give high values; in transgenic mouse T cells; stimulated with anti-CD3/CD4/CD28 beads; note: 0% is about no effect
Method in brief: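 Readout: EGFP and DsRed signals by fluorescent plate cytometry. Unstimulated transgenic mouse T cells received compound 60 min before antibody-bead stimulation, then incubated 18 h at 37 degrees C.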

Question: For `COc1ccc(-c2cc(C(F)(F)F)c(C#N)c(SCC(=O)Nc3ccccc3C#N)n2)cc1`, which activation is on record?
Answer: inconclusive: 30%

Question: With `CCCCCn1c(N)c(-c2nc3ccccc3s2)c2c([N+](=O)[O-])nn(CC)c(=O)c21` as the compound, how does the activation read?
Answer: inconclusive: 37%

Question: For `COC(=O)C(C#N)c1nc2ccccc2nc1N1CCCC1` (centres undefined), which activation is on record?
Answer: inconclusive: 43.9%

Question: Which activation does the source give for `O=c1oc2ccccc2cc1-c1nc2c(s1)CCc1ccccc1-2` here?
Answer: inconclusive: 30.2%

Question: With `CCCCCn1c(=NC(=O)c2cccnc2)c(C#N)cc2c(=O)n3cccc(C)c3nc21` as the compound, how does the activation read?
Answer: inconclusive: 33.9%

Question: For `N#C/C(=C/c1ccc(N2CCOCC2)o1)C(=O)Nc1ccccc1`, which activation is on record?
Answer: inconclusive: 32.3%

Question: Which activation does the source give for `Cc1ccc(CN(C(=O)COc2ccc(C)c(C)c2)C2CCS(=O)(=O)C2)o1` (centres undefined) here?
Answer: inconclusive: 45.4%

Question: For `CCOc1cc(/C=C2/SC(=S)N(CC3CCCO3)C2=O)ccc1O` (centres undefined), which activation is on record?
Answer: inconclusive: 40.1%

Question: Which activation does the source give for `CCOC(=O)/C(=N\Nc1ccc(C(C)=O)cc1)c1csc(Nc2ccccc2)n1` here?
Answer: inconclusive: 31.7%

Question: With `O=C1N=C(N2CCOCC2)S/C1=C/c1ccc(-c2ccccc2Cl)o1` as the compound, how does the activation read?
Answer: inconclusive: 34.8%

Question: Which activation does the source give for `COc1cc2c3nnc(-c4ccc(F)cc4)c-3cn(Cc3ccc(F)cc3)c2cc1OC` here?
Answer: inconclusive: 40.5%

Question: Which activation does the source give for `CCN(CC)C(=O)c1ccc(/C=C/c2c[nH]c3ccccc23)[n+](C)c1` here?
Answer: active: 78.6%

Question: Which activation does the source give for `CC(=O)Nc1ccccc1NS(=O)(=O)c1cccc([N+](=O)[O-])c1` here?
Answer: inconclusive: 42.9%

Question: With `CCCCC(=O)Nc1ccc(C(=O)Nc2ccc(OC)cc2[N+](=O)[O-])cc1` as the compound, how does the activation read?
Answer: inconclusive: 46.2%

Question: With `Cc1cc(N2CCOCC2)ccc1/C=C1\SC(=O)N(C(C)C)C1=O` as the compound, how does the activation read?
Answer: inconclusive: 43.9%

Question: For `CCN(CC)c1ccc(/C=C2/C(=O)c3ccc(C(=O)O)cc3C2=O)cc1`, which activation is on record?
Answer: inconclusive: 47.4%

Question: Which activation does the source give for `CC[n+]1ccc(/C=C/c2c[nH]c3ccccc23)cc1` here?
Answer: active: 211%

Question: Which activation does the source give for `Cc1ccc(NC(=O)n2ncc3c(C)cccc32)cc1F` here?
Answer: inactive: -1.93%

Question: With `Cc1cccc2c(=O)n3c(cc12)-c1[nH]c2ccccc2c1CC3` as the compound, how does the activation read?
Answer: inconclusive: 40.8%

Question: Which activation does the source give for `CCN(CC)c1ccc2c(c1)OC(N)=C(C#N)C2c1cccnc1` (centres undefined) here?
Answer: inconclusive: 49%

Question: With `COc1cc([N+](=O)[O-])ccc1N/C=C/C(=O)c1cccs1` as the compound, how does the activation read?
Answer: inconclusive: 36.4%

Question: With `Cc1cc2nc3c(=O)n(Cc4ccccc4)c(=O)[nH]c3nc2cc1N` as the compound, how does the activation read?
Answer: inconclusive: 48.2%

Question: For `Cc1ccc(C(=O)c2sc3nc4c(cc3c2N)CCC4)cc1`, which activation is on record?
Answer: inconclusive: 33%

Question: With `N#C/C(=C\C=C\c1ccccc1)c1nc(-c2ccc3c(c2)OCO3)cs1` as the compound, how does the activation read?
Answer: active: 94.6%

Question: Which activation does the source give for `CC(C)(C)c1ccc(OCCNC(=S)Nc2ccccc2)cc1` here?
Answer: inactive: -5.8%

Question: Which activation does the source give for `COc1ccc(C(=O)c2sc3nc(-c4ccc(OC)cc4)ccc3c2N)cc1` here?
Answer: inconclusive: 37.5%

Question: Which activation does the source give for `Cc1noc(C)c1COc1cccc(C(=O)Nc2ccc(Br)cc2F)c1` here?
Answer: inactive: -6.53%

Question: With `O=C(NCCNC(=O)c1cc(OCC(F)(F)F)ccc1OCC(F)(F)F)Nc1ccc(OC(F)(F)F)cc1` as the compound, how does the activation read?
Answer: inconclusive: 33.9%

Question: With `Cc1ncsc1C(=O)N1N=C2/C(=C/c3ccc(N4CCOCC4)cc3)CCCC2C1c1ccc(N2CCOCC2)cc1` (centres undefined) as the compound, how does the activation read?
Answer: inconclusive: 34.4%

Question: With `CC(=O)c1ccc(NC(=O)CSc2nccn2CCc2ccccc2)cc1` as the compound, how does the activation read?
Answer: inactive: -0.159%

Question: For `COc1ccc(N2C(=O)CC(N3CCN(c4ccc(S(C)(=O)=O)cc4)CC3)C2=O)cc1` (centres undefined), which activation is on record?
Answer: inactive: -3.84%

Question: For `CN1CCc2c(sc(NC(=O)c3ccc(C(=O)c4ccccc4)cc3)c2C(N)=O)C1`, which activation is on record?
Answer: inconclusive: 44%

Question: For `CCN(CC)c1ccc(NC2CC(=O)N(CCc3ccc(OC)cc3)C2=O)cc1` (centres undefined), which activation is on record?
Answer: active: 125%

Question: For `C/C(=N\Nc1ccc([N+](=O)[O-])cc1)c1ccc(-n2nncc2C(C)(C)C)cc1`, which activation is on record?
Answer: inconclusive: 33.8%

Question: Which activation does the source give for `Cc1ccc(-n2c(=O)c(C#N)cc3c(=O)n4ccccc4nc32)cc1` here?
Answer: inconclusive: 47.9%

Question: With `O=C(CCN1C(=O)/C(=C/C=C/c2ccccc2)SC1=S)Nc1cccnc1` as the compound, how does the activation read?
Answer: active: 69%

Question: With `Cc1cccc(C)c1-n1c(C)cc(/C=C2\C(=O)NN(c3ccccc3)C2=O)c1C` as the compound, how does the activation read?
Answer: inconclusive: 38.3%

Question: Which activation does the source give for `O=C(NCc1cccc(F)c1)c1cccc2c1C(=O)c1ccc(N3CCC(Cc4ccccc4)CC3)cc1S2(=O)=O` here?
Answer: inconclusive: 46.6%

Question: Which activation does the source give for `CC1(C)CC(=O)c2sc(NC(=O)c3ccco3)nc2C1` here?
Answer: inactive: -3.55%

Question: Which activation does the source give for `Nc1c(C(=O)N/N=C/c2ccc(F)cc2)oc2nc(-c3ccccc3)cc(-c3ccco3)c12` here?
Answer: active: 230%

Question: For `N#C/C(=C\c1ccc(N2CCOCC2)o1)c1nc2ccccc2[nH]1`, which activation is on record?
Answer: inconclusive: 46.7%

Question: With `CC[n+]1c(/C=C2\Sc3ccccc3N2C)ccc2cccc(C)c21` as the compound, how does the activation read?
Answer: active: 160%

Question: With `COc1ccc(C(=O)NC2CCCc3c2cnn3-c2ccc(C)c(C)c2)c(OC)c1OC` (centres undefined) as the compound, how does the activation read?
Answer: inactive: -4.46%

Question: For `N#C/C(=C\c1ccc(C(=O)O)cc1)c1nc2sc3c(c2c(=O)[nH]1)CCCC3`, which activation is on record?
Answer: active: 301%

Question: Which activation does the source give for `Cc1ccc(Cl)cc1N1CCN(C(=O)C2CCN(S(C)(=O)=O)CC2)CC1` here?
Answer: inactive: -2.46%

Question: For `C=CCN1C(=O)/C(=C2/Sc3ccccc3N2CC)SC1=S`, which activation is on record?
Answer: inconclusive: 32.5%

Question: For `O=C(/C=C/Nc1ccc([N+](=O)[O-])cc1Br)c1cccc2ccccc12`, which activation is on record?
Answer: inconclusive: 42.9%

Question: For `Cc1ccc2nc(/C(C#N)=C/c3ccc(-c4ccccc4C(=O)O)o3)[nH]c2c1`, which activation is on record?
Answer: inconclusive: 32.4%

Question: With `CCOc1ccc(NC(=O)C(Cc2ccccc2)N2C(=O)c3cccc4cccc(c34)C2=O)cc1` (centres undefined) as the compound, how does the activation read?
Answer: active: 96.9%

Question: For `CCN1/C(=C/C=C/c2oc3ccc(-c4ccccc4)cc3[n+]2CC)Oc2ccc(-c3ccccc3)cc21`, which activation is on record?
Answer: inconclusive: 31.5%

Question: For `CCN(CC)c1ccc(/C=N/N2C(=O)c3ccccc3C2=O)c(O)c1`, which activation is on record?
Answer: inconclusive: 32.9%

Question: For `O=C(N=c1ccn(-c2nc3ccccc3nc2NS(=O)(=O)c2ccccc2)cc1)c1cccs1`, which activation is on record?
Answer: inconclusive: 31.2%

Question: Which activation does the source give for `COc1cccc(Nc2nc(CC(C)=O)ns2)c1` here?
Answer: inactive: 3.66%

Question: With `COc1cc(C=C2CN(C)C(=O)C2=O)ccc1O` as the compound, how does the activation read?
Answer: inactive: 0.0218%

Question: Which activation does the source give for `Cc1ccc(-c2csc3nc(CSc4nnc(-c5ccc(Cl)cc5)n4C)[nH]c(=O)c23)cc1` here?
Answer: inconclusive: 42.7%

Question: For `O=C(Nc1ccccc1O)c1ccc(NC(=O)C2CC2)cc1`, which activation is on record?
Answer: inactive: -3.79%

Question: For `N#C/C(=C\c1ccc(-c2ccc(C(=O)O)cc2)o1)c1nc2ccccc2[nH]1`, which activation is on record?
Answer: inconclusive: 46.7%

Question: Which activation does the source give for `O=C1c2cccc3c(Nc4ccccc4Cl)c([N+](=O)[O-])cc(c23)C(=O)N1CCO` here?
Answer: inconclusive: 45.2%

Question: For `COc1cc2c3nnc(-c4ccc(F)cc4)c-3cn(Cc3cccc(C)c3)c2cc1OC`, which activation is on record?
Answer: active: 218%

Question: With `CCOc1ccc(NC(=O)/C(C#N)=C/c2ccc(N3CCCC3)c(C)c2)cc1` as the compound, how does the activation read?
Answer: active: 270%

Question: With `Cc1cccc2c(N=Nc3ccccc3)c(O)[nH]c12` as the compound, how does the activation read?
Answer: active: 257%

Question: Which activation does the source give for `C=CCOc1ccccc1/C=c1\sc2nc(-c3oc4ccccc4c3C)nn2c1=O` here?
Answer: inconclusive: 30.2%

Question: For `CCN(CC)c1ccc(/C=C/C(=O)c2ccc(Br)cc2)cc1`, which activation is on record?
Answer: inconclusive: 45.3%

Question: For `Cc1ccc(/C=C2/NC(=O)N(Cc3ccccc3F)C2=O)s1`, which activation is on record?
Answer: inconclusive: 37.9%

Question: Which activation does the source give for `Cc1ccccc1NC(=O)CN1C(=O)S/C(=C\c2ccc(-c3cc(C(=O)O)ccc3C)o2)C1=O` here?
Answer: active: 76.9%

Question: With `Cc1cccc(-n2[nH]c(C)c(C=Nc3ccc4[nH]c(=O)[nH]c4c3)c2=O)c1` as the compound, how does the activation read?
Answer: inconclusive: 40.4%

Question: With `Cc1cc(/C=C2/SC(=O)N(CC(=O)N3CCCC3)C2=O)ccc1N1CCOCC1` as the compound, how does the activation read?
Answer: inconclusive: 40.7%

Question: With `CC(C)n1c(O)c(N=Nc2ccc(Cl)nn2)c2ccccc21` as the compound, how does the activation read?
Answer: active: 87.5%

Question: With `Cc1ccc(N2C(=O)c3cccc4c(N5CCN(C)CC5)ccc(c34)C2=O)c2cccnc12` as the compound, how does the activation read?
Answer: inconclusive: 31.4%
